In patent WO2020165374A1 (dated 2020):

What was measured:
[1] = target: T1, human recombinant IL-15 (SinoBiological ref#10360-H07E) (human, UniProt P40933 fragment); test: ELISA, human IL-15 immobilized, anti-human IgG peroxidase detection
T1 construct: also called Human IL-15; IL-15 cytokine

[2] = target: T2, recombinant human PD-1 (Sino Biologicals, reference 10377-H08H) (human, UniProt Q15116 fragment); test: ELISA, recombinant hPD1 immobilized, anti-human IgG peroxidase detection
T2 construct: Bought protein; also called recombinant hPDl; Human recombinant PD-1
T2 sequence (Q15116 25-167 limits assumed): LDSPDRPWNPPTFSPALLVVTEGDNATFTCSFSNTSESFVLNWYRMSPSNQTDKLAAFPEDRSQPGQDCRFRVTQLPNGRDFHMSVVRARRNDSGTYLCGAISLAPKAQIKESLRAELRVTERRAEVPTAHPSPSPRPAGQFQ

T1 sequence (P40933 49-162 limits assumed, stated change not applied): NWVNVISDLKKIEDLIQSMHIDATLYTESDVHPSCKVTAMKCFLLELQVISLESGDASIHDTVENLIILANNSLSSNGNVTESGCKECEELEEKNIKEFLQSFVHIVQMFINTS

- fold binding efficacy compared to the IL-15RA Fc protein [1]: 10 fold
- binding result [2]: binds
B1: bifunctional molecule anti-PD-1/sushi (other)
heavy: QIQLVQSGSELKKPGASVKVSCKASGYTFTHYAMNWVRQAPGQGLEWMGWINTNTGEPTYAQGFTGRFVFSLDTSVSTAYLQISSLKAEDTAVYYCAREREPGMDNWGQGTLVTVSSASTKGPSVFPLAPCSRSTSESTAALGCLVKDYFPEPVTVSWNSGALTSGVHTFPAVLQSSGLYSLSSVVTVPSSSLGTKTYTCNVDHKPSNTKVDKRV[in this place human IgG4 Fc with S228P L445P (EU numbers)]ITCPPPMSVEHADIWVKSYSLYSRERYICNSGFKRKAGTSSLTECVLNKATNVAHWTTPSLKCIRDPALVHQRPAPPS
light: DVVMTQSPLSLPVTLGQPASISCRSSQSLVHANTNTYLEWYQQRPGQSPRLLIYKVSNRFSGVPDRFSGSGSGTDFTLKISRVEAEDVGVYYCFQGTHVPNTFGQGTKLEIKRTVAAPSVFIFPPSDEQLKSGTASVVCLLNNFYPREAKVQWKVDNALQSGNSQESVTEQDSKDSTYSLSSTLTLSKADYEKHKVYACEVTHQGLSSPVTKSFNRGEC
notes: also called anti-PD-l/sushi; anti-PDl/sushi

- fold binding efficacy compared to the IL-15RA Fc protein [1]: 10 fold
- binding result [2]: binds
B2: bifunctional molecule anti-PD-1/IL15Ra (other)
heavy: QIQLVQSGSELKKPGASVKVSCKASGYTFTHYAMNWVRQAPGQGLEWMGWINTNTGEPTYAQGFTGRFVFSLDTSVSTAYLQISSLKAEDTAVYYCAREREPGMDNWGQGTLVTVSSASTKGPSVFPLAPCSRSTSESTAALGCLVKDYFPEPVTVSWNSGALTSGVHTFPAVLQSSGLYSLSSVVTVPSSSLGTKTYTCNVDHKPSNTKVDKRV[in this place human IgG4 Fc with S228P L445P (EU numbers)]ITCPPPMSVEHADIWVKSYSLYSRERYICNSGFKRKAGTSSLTECVLNKATNVAHWTTPSLKCIKPAASSPSSNNTAATTAAIVPGSQLMPSKSPSTGTTEISSHESSHGTPSQTTAKNWELTASASHQPPGVYPQGHSDTT
light: B1 light
notes: also called anti-PD-l/IL-15RA; anti-PDl/IL15-RA

One block for each binder: values may come before it.
